Measured values taken from patent publication US11207320B2, “Compositions and methods for cancer expressing PDE3A or SLFN12” (The Broad Institute, Inc., priority 2015, dated 2021).
The source gives many values for each of these; only a part stands here.

Test system: 766 cancer cell lines
Assay: Large-scale cell-line viability measurements (766 cancer cell lines, 72 h, AUC)
Type: cell-based, human
Protocol: Cell lines were treated for 72 hours with concentrations ranging from 66.4 μM-2 nM in 2-fold step dilutions.
To characterize cellular sensitivity to DNMDP further, 766 genomically characterized cancer cell lines were screened for DMNDP sensitivity at concentrations ranging from 66.4 μM to 2 nM in 2-fold dilution steps for 72 hours. From these cell lines, 22 cell lines were categorized as sensitive with a robust Z-score lower than −4, which represented multiple lineages including multiple melanoma cell lines, amongst others (Table 1).
The sensitivity of […] cancer cell lines (CCLs) was measured drawn from 23 different lineages to DNMDP. Each cell line was plated in its preferred media in white opaque 1536-plates at a density of 500 cells/well. After incubating overnight, DNMDP was added by acoustic transfer at 16 concentrations ranging from 66.4 μM-2 nM in 2-fold steps in duplicate (Labcyte Echo 555, Labcyte Inc., Sunnyvale, Calif.). After 72 hours treatment, cellular ATP levels were measured as a surrogate for viability (CELLTITERGLO®, Promega Corporation, Madison, Wis.) according to manufacturer's protocols using a ViewLux Microplate Imager (PerkinElmer, Waltham, Mass.) and normalized to background (media-only) and vehicle (DMSO)-treated control wells.
Concentration response curves were fit using nonlinear fits to 2- or 3-parameter sigmoid functions through all 16 concentrations with the low-concentration asymptote set to the DMSO-normalized value, and an optimal 8-point dose curve spanning the range of compound-sensitivity was identified. The area under the 8-point dose curve (AUC) was computed by numeric integration as a metric for sensitivity for further analysis. Similar sensitivity measurements have been obtained for a collection of 480 other compounds, enabling analyses that identify cell lines responding uniquely to DNMDP (see Broad Institute Cancer Therapeutics Response Portal, a dataset to identify comprehensively relationships between genetic and lineage features of human cancer cell lines and small-molecule sensitivities for complete list of compounds).

[1] = cell line HL60 (HAEMATOPOIETIC AND LYMPHOID TISSUE)
[2] = cell line HPAC, PANCREAS, 72 hours
[3] = cell line HPBALL (HAEMATOPOIETIC AND LYMPHOID TISSUE)
[4] = cell line HS683 (CENTRAL NERVOUS SYSTEM)
[5] = cell line HS688AT, SKIN, 72 hours
[6] = cell line HS819T, BONE, 72 hours
[7] = cell line HSC2 (UPPER AERODIGESTIVE TRACT)
[8] = cell line HSC3, UPPER AERODIGESTIVE TRACT, 72 hours
[9] = cell line HSC4 (UPPER AERODIGESTIVE TRACT)
[10] = cell line HT29, LARGE INTESTINE, 72 hours
[11] = cell line HT55 (LARGE INTESTINE)
[12] = cell line HT115 (LARGE INTESTINE)
[13] = cell line HT1376 (URINARY TRACT)
[14] = cell line HT (HAEMATOPOIETIC AND LYMPHOID TISSUE)
[15] = cell line HUCCT1, BILIARY TRACT, 72 hours
[16] = cell line HUH1, LIVER, 72 hours
[17] = cell line HUNS1, HAEMATOPOIETIC AND LYMPHOID TISSUE, 72 hours
[18] = cell line HUPT4, PANCREAS, 72 hours
[19] = cell line IMR32, AUTONOMIC GANGLIA, 72 hours
[20] = cell line IPC298, SKIN, 72 hours
[21] = cell line ISHIKAWAHERAKLIO02ER (ENDOMETRIUM)
[22] = cell line JHH6, LIVER, 72 hours
[23] = cell line JK1 (HAEMATOPOIETIC AND LYMPHOID TISSUE)

In the case of `CCN(CC)c1ccc(C2=NNC(=O)CC2C)cc1[N+](=O)[O-]` (centres unmarked) [DNMDP, 6-(4-(diethylamino)-3-nitrophenyl)-5-methyl-4,5-dihydropyridazin-3(2H)-one], the “DNMDP AUC” value (cell line HGC27 (STOMACH)) is reported as 6.595, the “Robust Z-score” value (cell line HGC27 (STOMACH)) is reported as −0.04162 and the “DNMDP AUC” value [1] is reported as 6.7796. The “Robust Z-score” value [1] was 0.1521, the “DNMDP AUC” value (cell line HMC18 (BREAST)) was 6.8147 and the “Robust Z-score” value (cell line HMC18 (BREAST)) was 0.189. The “DNMDP AUC” value [2] was 7.1394, the “Robust Z-score” value [2] was 0.5298 and the “DNMDP AUC” value (cell line HPAFII (PANCREAS)) was 6.7751. The “Robust Z-score” value (cell line HPAFII (PANCREAS)) was 0.1474, the “DNMDP AUC” value [3] was 6.5743 and the “Robust Z-score” value [3] was −0.06335. For the same compound, the “DNMDP AUC” value [4] was 7.0975, the “Robust Z-score” value [4] was 0.4858 and the “DNMDP AUC” value [5] was 7.1049. The “Robust Z-score” value [5] was 0.4936, the “DNMDP AUC” value (cell line HS746T (STOMACH)) was 7.1012 and the “Robust Z-score” value (cell line HS746T (STOMACH)) was 0.4897. The “DNMDP AUC” value [6] was 7.1097, the “Robust Z-score” value [6] was 0.4986 and the “DNMDP AUC” value (cell line HS822T (BONE)) was 6.9115. The “Robust Z-score” value (cell line HS822T (BONE)) was 0.2906, the “DNMDP AUC” value (cell line HS895T (SKIN)) was 6.8118 and the “Robust Z-score” value (cell line HS895T (SKIN)) was 0.1859. For the same compound, the “DNMDP AUC” value (cell line HS944T (SKIN)) was 6.8697, the “Robust Z-score” value (cell line HS944T (SKIN)) was 0.2467 and the “DNMDP AUC” value [7] was 6.59. The “Robust Z-score” value [7] was −0.04687, the “DNMDP AUC” value [8] was 7.2237 and the “Robust Z-score” value [8] was 0.6183. The “DNMDP AUC” value [9] was 6.8327, the “Robust Z-score” value [9] was 0.2079 and the “DNMDP AUC” value [10] was 7.364. For the same compound, the “Robust Z-score” value [10] was 0.7656, the “DNMDP AUC” value [11] was 6.6554 and the “Robust Z-score” value [11] was 0.02178. The “DNMDP AUC” value [12] was 6.8303, the “Robust Z-score” value [12] was 0.2054 and the “DNMDP AUC” value (cell line HT144 (SKIN)) was 6.7297. For the same compound, the “Robust Z-score” value (cell line HT144 (SKIN)) was 0.09977, the “DNMDP AUC” value (cell line HT1080 (SOFT TISSUE)) was 6.5745 and the “Robust Z-score” value (cell line HT1080 (SOFT TISSUE)) was −0.06314. For the same compound, the “DNMDP AUC” value [13] was 6.7994, the “Robust Z-score” value [13] was 0.1729 and the “DNMDP AUC” value [14] was 6.9476. The “Robust Z-score” value [14] was 0.3285, the “DNMDP AUC” value [15] was 7.1094 and the “Robust Z-score” value [15] was 0.4983. The “DNMDP AUC” value [16] was 7.4298, the “Robust Z-score” value [16] was 0.8346 and the “DNMDP AUC” value (cell line HUH6 (LIVER)) was 6.6437. For the same compound, the “Robust Z-score” value (cell line HUH6 (LIVER)) was 0.009499, the “DNMDP AUC” value [17] was 7.6648 and the “Robust Z-score” value [17] was 1.081. The “DNMDP AUC” value (cell line HUPT3 (PANCREAS)) was 6.837, the “Robust Z-score” value (cell line HUPT3 (PANCREAS)) was 0.2124 and the “DNMDP AUC” value [18] was 7.4555. For the same compound, the “Robust Z-score” value [18] was 0.8616, the “DNMDP AUC” value (cell line IGR39 (SKIN)) was 6.6163 and the “Robust Z-score” value (cell line IGR39 (SKIN)) was −0.01926. The “DNMDP AUC” value (cell line IGROV1 (OVARY)) was 7.0026, the “Robust Z-score” value (cell line IGROV1 (OVARY)) was 0.3862 and the “DNMDP AUC” value [19] was 7.4593. The “Robust Z-score” value [19] was 0.8656, the “DNMDP AUC” value [20] was 7.1984 and the “Robust Z-score” value [20] was 0.5917. The “DNMDP AUC” value [21] was 6.8313, the “Robust Z-score” value [21] was 0.2064 and the “DNMDP AUC” value (cell line JHH1 (LIVER)) was 6.8737. For the same compound, the “Robust Z-score” value (cell line JHH1 (LIVER)) was 0.2509, the “DNMDP AUC” value (cell line JHH2 (LIVER)) was 6.9004 and the “Robust Z-score” value (cell line JHH2 (LIVER)) was 0.2789. The “DNMDP AUC” value [22] was 7.2377, the “Robust Z-score” value [22] was 0.633 and the “DNMDP AUC” value (cell line JHOC5 (OVARY)) was 6.9036. The “Robust Z-score” value (cell line JHOC5 (OVARY)) was 0.2823, the “DNMDP AUC” value (cell line JHUEM2 (ENDOMETRIUM)) was 6.608 and the “Robust Z-score” value (cell line JHUEM2 (ENDOMETRIUM)) was −0.02797. The “DNMDP AUC” value [23] was 6.9966, the “Robust Z-score” value [23] was 0.3799 and the “DNMDP AUC” value (cell line JL1 (PLEURA)) was 6.6309. For the same compound, the “Robust Z-score” value (cell line JL1 (PLEURA)) was −0.003936 and the “DNMDP AUC” value (cell line JURLMK1, HAEMATOPOIETIC AND LYMPHOID TISSUE, 72 hours) was 8.1126.
